# Reference: PubChem BioAssay AID445 (National Center for Advancing Translational Sciences (NCATS), 2006)
# The campaign covered roughly 110,000 compounds. About 40 (0.04%) were called active. Inconclusive results, whose numbers are uncertain, are shown with a selection of clear calls. Calls come from the whole dose curve; as a rule, active = well fitted curve in the direction sought with a large enough effect in the signal ratio (not every such curve was filed as active); inconclusive = small, poorly fitted or top-dose-only effect, or a change in a side signal; inactive = flat fitted curve, though single readings scatter; the % refers to the signal ratio. Potencies beside an inconclusive call are fits to weak or partial responses and may not hold up.
# Test: IkB Signaling;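 for IkBa stabilization activation: 0% = basal untreated cells and 100% = reference inhibitor full response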
# Conditions: ABC-DLBCL IkBa-CBG/CBR dual luciferase ratio (green luciferase fused to IkBa over red control in OCI-Ly3 lymphoma cells), 4 h; IkBa stabilization activation: at 57.1 µM (top of the series), scaled: untreated 0%, proteasome inhibitor 100% unless noted
# How it was run: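 In this assay, an IκBα–CBG68 fusion accumulates when IKK-driven degradation is blocked; native CBR normalizes for cell number. OCI-Ly3 cells were treated 4 h with compound and doxycycline, then green and red light read after Chroma-Glo addition.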
# Potency is the fitted concentration of half-maximal effect.
Structure (SMILES),IkBa stabilization activation,Potency
O=C(Cn1cnc2onc(-c3ccc(F)cc3)c2c1=O)N1CCN(c2ccc(F)cc2)CC1,inconclusive: 3.55% [signal inhibitor],
Cc1ccc(Cc2c(C)nc3nc(SCC(=O)NCCC(C)C)nn3c2C)cc1,inconclusive: 2.22% [signal inhibitor],
Cc1ccc(CN2C(=O)SC(Nc3ccc(Cl)cc3)C2=O)cc1 (stereo unspecified),inconclusive: 16.8% [signal inhibitor],
CC1CCN(c2nc3ccc(C(=O)NC(C)C)cc3s2)CC1,,"inconclusive: 20 µM [signal inhibitor, partial curve]"
Cn1c(=O)[nH]c(=O)c2c1nc(Br)n2CCCSc1nc2ccccc2o1,inconclusive: 9.48% [signal inhibitor],
O=C(Nc1onc2c1CCCC2)c1ccccc1,inactive,
CC1CCN(C(=O)c2ccc3c(c2)N(Cc2ccccc2F)C(=O)c2ccccc2S3(=O)=O)CC1,inconclusive: -0.0734% [signal inhibitor],
Cc1c(Cl)cccc1-n1ncc(C(=O)N2CCN(C)CC2)c1C1CCN(C(=O)OC(C)(C)C)CC1,inconclusive: 4.21% [signal inhibitor],
COc1ccc(S(=O)(=O)n2nc(C)c(S(=O)(=O)N3CCCCC3)c2C)cc1,inconclusive: 1.34% [signal inhibitor],
COc1ccccc1N1CCN(C(=O)c2cc3c(=O)n(C)c4ccccc4c3s2)CC1,inconclusive: 2.94% [signal inhibitor],
COc1ccc(-c2nc(SCC(=O)NC3CCCC3)c(-c3ccc(OC)cc3)[nH]2)cc1,inconclusive: 1.71% [signal inhibitor],
C=C(C)Cn1c(SCC(=O)Nc2ccccc2C)nc2sc3c(c2c1=O)CCCC3,inconclusive: 1.25% [signal inhibitor],
Cc1ccc(NC(=O)c2cc(-c3ccco3)on2)cc1,,"inconclusive: 15.8 µM [signal inhibitor, partial curve]"
COC(=O)c1ccc(-n2c(C)cc(/C=N/n3cnnc3)c2C)cc1,inactive,
CC(C)Cn1c(=O)c2ccccc2n2c(CCC(=O)N3CCN(c4cccc(Cl)c4)CC3)nnc12,inconclusive: 2.86% [signal inhibitor],
CCN(CC)c1nc(N(CC)CC)[nH]c(=O)n1,inactive,
COCCCN(Cc1ccco1)C(=O)c1cc2c(s1)-c1ccccc1OC2,inconclusive: 3.71% [signal inhibitor],
O=C(COc1ccccc1)Nc1sc2c(c1C(=O)Nc1ccccc1Cl)CCCCC2,,"inconclusive: 25.1 µM [signal inhibitor, partial curve]"
CCN(Cc1nc(-c2cccc(C)c2)no1)S(=O)(=O)c1ccc(C)cc1,inconclusive: 2.93% [signal inhibitor],
Cc1ccc(C)c(N2C(=O)N(Cc3c(F)cccc3Cl)c3ccccc3S2(=O)=O)c1,inactive,
COC(=O)C1C(=O)c2c([nH]c(C(=O)OC3CCCC3C)c2C)CC1C (stereo unspecified),inactive,
CC[C@@H]1OC(=O)[C@@H](C)[C@H](O[C@@H]2C[C@@](C)(OC)[C@@H](O)[C@H](C)O2)[C@H](C)[C@H](O[C@@H]2O[C@@H](C)C[C@@H](N(C)C)[C@H]2O)[C@@](C)(O)C[C@H](C)C(=O)[C@@H](C)[C@H](O)[C@@]1(C)O,"inactive: 2.38% [at 11.4 µM, scaled: untreated 0%, proteasome inhibitor 100%]",

Structure (SMILES),IkBa stabilization activation,Potency
CC(=O)OCc1cc(=O)n2nc(C3CCCCC3)sc2n1,,"inconclusive: 31.6 µM [signal inhibitor, single point]"
CCOc1ccc(NC(=O)CCN2CCN(S(=O)(=O)c3cc(Cl)ccc3OC)CC2)cc1,inconclusive: 0.112% [signal inhibitor],
Cc1c(C(=O)NC(C)c2ccccc2)sc2ncnc(N(C)C3CCCCC3)c12 (stereo unspecified),inconclusive: -0.152% [signal inhibitor],
O=S(=O)(Nc1ccc(-c2ccc(N3CCCCC3)nn2)cc1)c1ccc(OC(F)(F)F)cc1,inconclusive: 0.456% [signal inhibitor],
Cc1ccc(C(=O)Nc2ncc(Cc3ccc(F)cc3)s2)o1,inactive,
Cc1nn(-c2ccc(N3CCCCC3)nn2)c(C)c1CCC(=O)NCc1ccc(F)cc1,inconclusive: -0.0506% [signal inhibitor],
Fc1ccc(-n2c(Cc3ccccc3)nnc2SCc2nc(-c3cccs3)no2)cc1,inactive,
FC(F)(F)c1cccc(-n2cc(-c3ccccc3)c3c(N4CCCCC4)ncnc32)c1,inconclusive: -0.517% [signal inhibitor],
CCOC(=O)C1CCN(c2nc3c(S(=O)(=O)c4ccc(Br)cc4)nnn3c3ccsc23)CC1,inconclusive: -3.41% [signal inhibitor],
CCCC(=O)Nc1c(O)c2ccccc2[nH]c1=O,inactive,
N#Cc1cc2c(=O)n3ccccc3nc2n(CCCn2ccnc2)c1=N,inactive,
COc1ccc(CNC(=O)c2cc3c(-c4ccc(Cl)cc4)nn(C)c3s2)cc1,inconclusive: 0.898% [signal inhibitor],
COc1ccc(S(=O)(=O)N(CCc2ccccc2)CC(=O)NCc2ccccc2)cc1,inconclusive: -4.53% [signal inhibitor],
Cn1c(=O)n(C)c2cc(NS(=O)(=O)c3ccc(F)cc3)c(NCc3ccccc3)cc21,,"inconclusive: 15.8 µM [signal inhibitor, partial curve]"
OC(CN1c2ccccc2Sc2ccccc21)Cn1nnc2ccccc21 (stereo unspecified),inconclusive: -4.36% [signal inhibitor],
CCOC(=O)c1cccc(NC(=O)Cn2nc3c(cc2=O)CCCC3)c1,inconclusive: 0.739% [signal inhibitor],
CCC1Oc2ccccc2N(CC(=O)NCCN2CCc3ccccc3C2)C1=O (stereo unspecified),inconclusive: 6.78% [signal inhibitor],
CCCOc1ccccc1-c1nc(SCC(=O)c2ccccc2)n[nH]1,inactive,
Cc1ccc(-c2cc(NC(=O)c3ccccc3Cl)on2)cc1,inconclusive: 2.35% [signal inhibitor],
O=C(Nc1nc2nc(-c3ccccc3)cc(-c3ccccc3)n2n1)c1ccco1,inconclusive: -5.05% [signal inhibitor],
O=C(Nc1ccc(C(=O)N2CCN(c3ccc(F)cc3)CC2)cc1)c1nsc2ccccc12,,"inconclusive: 3.16 µM [signal inhibitor, full curve]"
COc1ccc(Oc2ncc3nc(CCc4ccccc4)c(=O)n(CCC#N)c3n2)cc1,"inactive: 1.93% [at 11.4 µM, scaled: untreated 0%, proteasome inhibitor 100%]",

Structure (SMILES),IkBa stabilization activation,Potency
CC(C)C1C(C#N)=C(N)Oc2n[nH]c(-c3ccccc3)c21 (stereo unspecified),inconclusive: 1.4% [signal inhibitor],
CCCCN(CCCC)c1ncnc2c1cnn2-c1cccc(C)c1,inactive,
COC(=O)c1c(NC(=O)c2cc(=O)c3c(C)cc(C)cc3o2)sc2c1CCCC2,inactive,
CCOC(=O)C1CCN(S(=O)(=O)c2cc(-c3onc(C)c3C)ccc2C)CC1,inconclusive: 9% [signal inhibitor],
CC(=O)N1CCCc2cc(S(=O)(=O)N3CCC(C(=O)N(Cc4ccccc4)C(C)C)CC3)ccc21,inactive,
O=C(CCN1CCN(c2ccc(Cl)cc2)CC1)Nc1ccccc1F,inconclusive: 1.11% [signal activator],
CCc1ccccc1Nc1cc(C(=O)NCc2ccc(C)cc2)c2ccccc2n1,inconclusive: 0.466% [signal inhibitor],
CCOC(=O)N1CCN(C(=O)c2ccc3c(c2)N(Cc2ccccc2F)C(=O)c2ccccc2S3=O)CC1 (stereo unspecified),inconclusive: -0.407% [signal inhibitor],
O=C(c1c2c(nc3ccccc13)C(=O)N(C1CCCCC1)C2)N1CCN(c2ccc(F)cc2)CC1,inconclusive: 1.3% [signal inhibitor],
O=C1CC2(CCCC2)CC(=O)N1CCNC[C@H]1COc2ccccc2O1,inactive,
CC(C)CCNC(=O)CN1C(=O)CCn2nc(-c3cn(C)c4ccccc34)cc21,inconclusive: -1.7% [signal inhibitor],
CCOc1ccc(NC(=O)CSc2oc(-c3ccco3)nc2S(=O)(=O)c2ccc(C)cc2)cc1,inconclusive: 0.522% [signal inhibitor],
CCCOc1ccc(/C=C/C(=O)Nc2sc(C)c(C)c2C(=O)OCC)cc1OC,,"inconclusive: 39.8 µM [signal activator, single point]"
CCCOc1ccc(NC(=O)CC2C(=O)N(c3ccc(C)cc3)C(=O)N2C(C)C)cc1 (stereo unspecified),inactive,
Cc1nc(S(=O)(=O)N2CCN(c3ccc(Cl)cc3)CC2)cn1C,inactive,
CCOc1ccc(S(=O)(=O)NCCc2csc(-c3ccc(Cl)cc3)n2)cc1,inconclusive: 3.06% [signal inhibitor],
COc1ccc(NC2=Nc3ccccc3CC2)cc1,inconclusive: 4.52% [signal inhibitor],
CC(C)Cn1c(SCC(=O)NC(=O)NC2CCCC2)nc2ccccc21,inconclusive: 5.03% [signal inhibitor],
COc1ccc(OCc2ccc(-c3nc(C#N)c(N4CCN(C)CC4)o3)o2)cc1,inconclusive: -1.37% [signal inhibitor],
COc1ccccc1CNC(=O)Cc1c(C)c2c(cc(C)c3c(C)c(C)oc32)oc1=O,inactive,
CCC(c1nnnn1Cc1ccco1)N(Cc1cc2cc(C)cc(C)c2[nH]c1=O)CC1CCCO1 (stereo unspecified),inconclusive: 10.8% [signal inhibitor],
Cc1ccc2c(CN3CCN(Cc4ccccc4Cl)CC3)cc(=O)oc2c1,inconclusive: -0.169% [signal inhibitor],
